Experimental data reported in PubChem BioAssay AID686978 (National Center for Advancing Translational Sciences (NCATS), 2013).
“And” between values parts separate entries of the source, which are not always exact repeats. Equal values may be shown once. Among all 420,000 compounds or so, about 64,000 (15%) were called active. Inconclusive means that the source gave no clear call. Such entries were picked first, then a sample of the others. Calls come from the whole dose curve; as a rule, active = well fitted inhibition curve with a large enough effect; inconclusive = small, poorly fitted or top-dose-only effect; inactive = flat fitted curve, though single readings scatter. Potencies beside an inconclusive call are fits to weak or partial responses and may not hold up.

test: qHTS for Inhibitors of human tyrosyl-DNA phosphodiesterase 1 (TDP1): qHTS in cells in absence of CPT; conditions: DT40 Tdp1-/- hTDP1 cells, no CPT, ATP luminescence, 48 h; activity change, negative = growth inhibition: at 46.2 µM (top of the series) unless noted; note: nearly all actives have a fitted effect of over 55% in size
Procedure, shortened: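 Seeded 400 DT40-hTDP1 cells/well (vehicle DMSO, no 20 nM CPT); pinned compounds; ≥48 hr at 37 °C; CellTiter-Glo luminescence as viability measure.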
% is set by controls: 0 for no effect and ±100 for the full control effect; potency is the fitted concentration of half-maximal effect; tags give direction and shape of the fitted curve.

Compound	Potency	activity change, negative = growth inhibition
Cc1ccc(N2C(=O)c3n[nH]c(C)c3C2c2ccccc2Cl)cc1 (configuration not stated)	inconclusive: 20.6 µM [inhibitor, single point]	
CCN(CC(=O)NCc1cccs1)C(=O)/C=C/c1cc(Br)ccc1OC(F)F	inconclusive: 29.1 µM [inhibitor, single point]	
CO/N=C(\c1nonc1N)N1CCN(c2ccc(Cl)cc2[N+](=O)[O-])CC1	inconclusive: 23.1 µM [inhibitor, single point]	
Cn1cc(S(=O)(=O)N2CCCC2)cc1C(=O)N1CCN(c2cccc(Cl)c2)CC1	inconclusive: 20.6 µM [inhibitor, single point] and inconclusive: 23.1 µM [inhibitor, single point]	
Cc1cc(NC(=O)CSc2ncccc2C(=O)O)no1	inconclusive: 3.66 µM [inhibitor, single point]	
CC1CCC2(CC1)NC(=S)N(C(C)(C)C)N2 (configuration not stated)		inactive: -12.1%
COC(=O)C1CCN(C(=O)NC2CC(=O)N(c3ccc4c(c3)OCCO4)C2)CC1 (configuration not stated)		inactive: 0.284%
COc1cccc(C2=NN(C(=O)c3ccco3)C(O)(C(F)(F)F)C2)c1 (configuration not stated)		inconclusive: -17.9% [inhibitor]
COC(=O)C1=C(C(=O)OC)[C@@H]2N(C)c3ccccc3[C@@]23C[C@@H](C(=O)OC)N(C(=O)c2ccc(Br)cc2)C3=N1	inconclusive: 29.1 µM [inhibitor, single point]	
CC1(c2ccccc2)NC(=O)N(CC(=O)NNC(=O)c2cccc(Cl)c2)C1=O (configuration not stated)	inconclusive: 20.6 µM [inhibitor, partial curve]	
N#Cc1c(NC(=O)CN2CCN(C(=O)c3ccco3)CC2)sc2c1CCCCC2	inconclusive: 29.1 µM [inhibitor, single point]	
Cc1ccc(-c2csc(/C(C#N)=C/Nc3ccc4c(c3)OCCO4)n2)cc1	inconclusive: 23.1 µM [inhibitor, partial curve, poor fit]	
O=C(Cc1ccc(Cl)cc1)Nc1ccccc1C(=O)N1CCCC1		inactive: -13.3%
COc1ccc(OCCNC(=O)CSc2ccc(C(F)(F)F)cc2[N+](=O)[O-])cc1	inconclusive: 20.6 µM [inhibitor, single point]	
Cc1nn(CC(=O)Nc2ccc3c(c2)nc2n3CCN(C3CCCCC3)C2)c(=O)c2ccccc12	inconclusive: 8.2 µM [inhibitor, partial curve]	
O=C(O)c1ccc2c(c1)C(=O)N(c1ccc(/C=C/C(=O)c3ccccc3)cc1)C2=O		inactive: 12.3%
COCCN(C(=O)CSc1nnc(Nc2ccccc2F)s1)c1c(N)n(Cc2ccccc2)c(=O)[nH]c1=O		inactive: -10.5%
CCO[C@H]1[C@H](NC(=O)c2cccnc2)c2ccccc2C12CCN(C(=O)c1cc(C)n(C)n1)CC2		inactive: -9.62%
CCOc1cc(/C=C2/N=C(c3ccc4c(c3)OCO4)OC2=O)ccc1OC(C)=O	inconclusive: 29.1 µM [inhibitor, single point]	
Cc1cc(C)c(NC(=O)CS(=O)CC(=O)N2CCN(c3ccc(F)cc3)CC2)c(C)c1 (configuration not stated)	inconclusive: 11.2 µM [inhibitor, partial curve]	
O=C(Nc1ccccc1O)c1cc(S(=O)(=O)N2CCOCC2)ccc1Cl	inconclusive: 14.6 µM [inhibitor, single point]	
CCc1ccc(OC(=O)CSc2nnc(-c3ccc(OC)c(OC)c3)o2)cc1		inactive: -0.733%
COc1ccc(C(=O)C(=O)N2CCN(C(=O)OCc3ccccc3)CC2)cc1	inconclusive: 14.6 µM [inhibitor, single point]	

Compound	Potency	activity change, negative = growth inhibition
COc1ccc(-n2ccnc2SCC(=O)NCc2ccc3c(c2)OCO3)cc1	inconclusive: 16.4 µM [inhibitor, single point]	
NC1=NCC2c3ccccc3Cc3ccccc3N12 (configuration not stated)	active: 23.7 µM	
COc1ccc(OC)c(C(O)c2ncc(-c3cccc(C(F)(F)F)c3)[nH]2)c1 (configuration not stated)	inconclusive: 20.6 µM [inhibitor, single point]	
Cc1ccc(NC(=O)N2CCC3(CC2)Oc2ccccc2C(=O)N3Cc2ccc(F)cc2)cc1	inconclusive: 20.6 µM [inhibitor, single point]	
Clc1ccc(-c2nnc(SCc3nc4ccccc4s3)o2)cc1		inactive: 1.63%
COc1ccc(S(=O)(=O)N2CCOCC2)cc1NC(=O)c1ccc(Cl)cc1	inconclusive: 7.31 µM [inhibitor, partial curve, poor fit]	
CC(Oc1ccccc1)C(=O)Nc1cccc(-c2cn3cccnc3n2)c1 (configuration not stated)	inconclusive: 29.1 µM [inhibitor, single point]	
COc1cc(NC(=O)c2cnc(NCc3ccccc3)nc2C)cc(OC)c1OC	inconclusive: 1.3 µM [inhibitor, full curve]	
CCNC(=O)c1ccc2c(c1)sc1nc(-c3cccc(OC)c3)cn12	active: 7.31 µM	
O=C(Cc1ccccc1F)N1CCN(S(=O)(=O)c2ccc(Cl)cc2)CC1		inactive: -9.98%
NNC(=S)NCc1ccc2c(c1)OCO2	inconclusive: 25.9 µM [inhibitor, single point]	
COc1ccc(/C=C/c2nc(C#N)c(NCc3ccc(C)cc3)o2)cc1OC	inconclusive: 23.1 µM [inhibitor, single point]	
O=C(CN1CCC(n2cnc3cc(F)ccc32)CC1)Nc1ccccc1Br	inconclusive: 23.1 µM [inhibitor, single point]	
Cc1c2cnn(CC(=O)NC(C)C)c(=O)c2c(C)n1Cc1cccc(Cl)c1	inconclusive: 25.9 µM [inhibitor, single point]	
COc1ccc(/C=C/C(=O)OCC(=O)N(C)c2c(N)n(Cc3ccccc3)c(=O)[nH]c2=O)cc1OC		inactive: 2.14%
CCOC(=O)c1c(C)[nH]c(C(=O)N(C)CC(=O)Nc2ccc(OC)cc2)c1C		inactive: 21.6%
CN(C)Cc1c(C(=O)N/N=C/C=C/c2ccccc2)nnn1-c1nonc1N		inactive: 3%
CCOc1ccc(/C=N/OCC(=O)Nc2ccc(OCc3ccccc3)cc2)cc1OC	inconclusive: 14.6 µM [inhibitor, partial curve, poor fit]	
OCCN1CCN(CC/C=C2/c3ccccc3CSc3ccccc32)CC1	inconclusive: 29.1 µM [inhibitor, single point]	
O=C(Cn1cc(SCc2cccc(Cl)c2)c2ccccc21)N1CCCCC1	inconclusive: 18.4 µM [inhibitor, single point]	
CN(C)S(=O)(=O)c1cccc(NC(=O)COC(=O)c2cc(-c3cccc(Br)c3)nc3ccccc23)c1	inconclusive: 29.1 µM [inhibitor, single point]	
COc1ccc(CNC(=O)N2CCc3nc(Nc4cc(OC)c(OC)c(OC)c4)ncc3C2)cc1	inconclusive: 16.4 µM [inhibitor, single point]	
CCOC(=O)Cc1csc(SCc2cc(=O)oc3cc(O)ccc23)n1	active: 13 µM	

Compound	Potency	activity change, negative = growth inhibition
Cc1ccc(CN2CCSc3ccc(C(=O)NCc4ccccn4)cc32)cc1		inactive: -16%
Cc1cc(C)nc(SCCn2c(N(C)Cc3ccccc3)nc3c2c(=O)n(C)c(=O)n3C)n1	inconclusive: 29.1 µM [inhibitor, single point]	
Cc1cc(-c2nn(C)c(=O)c3ccccc23)ccc1CNC(=O)NC1CCCCC1	inconclusive: 23.1 µM [inhibitor, single point]	
CCOC(=O)c1sc(-c2ccccn2)nc1C		inactive: 1.18%
COc1ccc(NC(=O)C2=C(C)NC(=O)NC2c2cccc(OC)c2OC)c(OC)c1 (configuration not stated)		inconclusive: -32.9% [inhibitor]
CCOc1ccc(S(=O)(=O)N2CCN(c3ccc(C)cc3C)CC2)cc1	inconclusive: 29.1 µM [inhibitor, single point]	
CCOc1ncccc1C(=O)N1CCN(c2cccc(C)c2C)CC1	active: 0.58 µM	
O=C(N/N=C/c1cccc(O)c1)c1cc(-c2ccccc2)nc2ccccc12	inconclusive: 0.82 µM [inhibitor, full curve]	
Fc1ccc(-c2cc(-c3nc(-c4ccc(Cl)cc4)no3)[nH]n2)cc1	inconclusive: 18.4 µM [inhibitor, single point]	
COc1ccc(S(=O)(=O)c2c(C(=O)c3ccc(C)c(C)c3)cnc3ccc(C)cc23)cc1	active: 6.51 µM	
COc1ccc(C2=NCCn3nc4ccccc4c32)cc1		inactive: -15.4%
O=C(/C=C/c1ccccc1[N+](=O)[O-])OCC(=O)N1CCN(c2ccccc2)CC1	inconclusive: 18.4 µM [inhibitor, single point]	
COc1ccc(-c2csc3nc(C)n(-n4cccc4)c(=O)c23)cc1	inconclusive: 7.31 µM [inhibitor, partial curve]	
Cc1cccc(CN2CCC(n3nccc3NC(=O)CCCc3ccccc3)CC2)n1	inconclusive: 8.2 µM [inhibitor, partial curve]	
CC(C)c1ccc(C(C)NC(=S)NC2CCCCC2)cc1 (configuration not stated)	active: 4.61 µM	
Cc1cccc(NC(=O)CCc2ccc(C)o2)c1	inconclusive: 20.6 µM [inhibitor, single point]	
O=c1c(CCc2ccccc2)nc2cnc(N3CCNCC3)nc2n1Cc1ccc(F)cc1	inconclusive: 16.4 µM [inhibitor, partial curve, poor fit]	
O=C1C2C3c4ccccc4C(c4ccccc43)C2C(=O)N1Cc1ccco1 (configuration not stated)	inconclusive: 4.11 µM [inhibitor, partial curve, poor fit]	
CCOc1cc2c(cc1OCC)C(c1ccccc1)N(c1ccccc1)C(=O)C2 (configuration not stated)	active: 16.4 µM	
Cc1noc(C)c1S(=O)(=O)N1CCCC1C(=O)NC(C)(C)C (configuration not stated)		inactive: -1.76%
CC1CCN(c2ccc(NC(=O)Cc3ccccc3)cc2)CC1		inactive: -14.9%
